Source: the supplement of paper PMC10300432
Recombinant human monoclonal antibodies (heavy:light variable regions). ELISA EC50 on the named antigen, from 10 µg/ml down; IC50 against spike pseudovirus on HT1080-ACE2 cells, 48 h; lower = stronger. Calls: IC50 above 1,000 ng/ml = non-neutralizing; EC50 above 1,000 ng/ml = non-binder.

Columns and labels:
[1] = target: SARS-CoV-2 Omicron BA.1 spike pseudovirus; assay: pseudovirus neutralization IC50; higher = weaker neutralization
Protocol: (§1)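 Single-round luciferase reporter pseudovirus mixed with antibody dilutions and put on HT1080-ACE2 clone 14 cells for 48 h; signal relative to no-antibody wells, four-parameter fit.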

[2] = target: SARS-CoV-2 Omicron BA.4/5 spike pseudovirus; assay: as above
Protocol: as §1

[3] = target: SARS-CoV-2 Wuhan-Hu-1 spike pseudovirus; assay: as above
Protocol: as §1

[4] = target: SARS-CoV-2 Wuhan-Hu-1 spike receptor-binding domain; assay: ELISA binding EC50; higher = weaker binding; ELISA of recombinant human antibody on coated antigen, from 10 µg/ml in fourfold dilutions; four-parameter fit.

Binder | pseudovirus neutralization IC50 [1] [µg/mL] | pseudovirus neutralization IC50 [2] [µg/mL] | pseudovirus neutralization IC50 [3] [µg/mL] | ELISA binding EC50 [4] [µg/mL]
C5125 (protein) chain 1: QVQLVESGGGVVQPGRSLRLSCTASGFTFSNYGMHWVRQVPGKGLEWVAAISYDGDDKYYVDSVKGRFNISRDNSKNTLYLLMNSLRVQDTAVYYCVKGGWYGDLLRVDYWGQGTLVIVSS chain 2: DIQMTQSPSSLSASVGDRVTITCQASQDISHYLNWYQQKPGKAPKLLIYDASSLETGVPSRFSGSGSGTEFTFTISSLQPEDIATYYCQQYGVPPITFGQGTRLEIK | > 1 | > 1 | > 1 | 0.00432
C5119 (protein) chain 1: QVQLVQSGAEVKKPGASVKVSCKASGYTFTSYGISWVRQAPGQGLEWMGWISTFNGDTNYAQKFQDRVTMTTDTSTSTVYMDLRSLRSDDTAVYYCARVFAGYCNVGSCYWFDYWGQGTLVTVSS chain 2: EIVMTQSPATLSVSPGERATLSCRASQSISNNLGWYQQKPGQAPRLLIYGASTRATGIPARFSGSGSGTEFTLTISSLQSEDFAVYYCQQYDNWPPMWTFGQGTKVEIK | 0.108 | 0.4 | 0.218 | 0.00527
C5122 (protein) chain 1: EVQLVESGGDLVQPGGSLRLSCAVSAFTVSSNYMIWVRQAPGRGLEWVSVIYPGGSTFYADSVKGRFIISRHNSENTLYLQMNDLRLEDTAVYYCARGPYPRSDLWGRGTLVTVSS chain 2: DIQMTQSPSFLSASVGDRVTITCQASQDSNKYVNWYQHKPGEAPKLLIYDASHLETGVPSRFSGTGSGTHFTFTISGLQPEDIATYYCQQYDNIPITFGGGTKVEI | 0.00138 | 0.00284 | 0.00433 | 0.0031
C5124 (protein) chain 1: QVQLVESGGGVVQPGRSLSLSCAASGFTFSSYDMHWVRQTPGKGLEWVAAISSDGNIKNYADSVKGRFTISRDNSKSTLYLQMNSLRAEDTAVYYCAKDSQSMIVDLFDYWGQGTLVTVSS chain 2: DIQMTQSPSSLSASIGDRVTITCRASQSISGYLNWYQQKSGKAPKLLIYATSSLHSGVPPRFSGSASGTDFTLTISSLQPEDFATYYCQQSYTTPLTFGPGTKVD | > 1 | > 1 | > 1 | 0.00395
C5118 (protein) chain 1: QVQLVESGGGVVQPGKSLRLSCAASGFSFDNYALHWVRQAPGKGLQWVAVISNGGNNKYYADSVKGRFTISRDNSKNTLFLQLNSLTTEDTALYYCARDLPLPSCSGDCYSGFDYWGQGTLVTVSS chain 2: SYELTQPPSVSVAPGKTARITCGGTDLGSKNIHWYQQKPGQAPMLVISYDHDRPSGIPDRFSGSNSGNTATLTISRVEVGDEADYYCQVWDTDGGLSEVVFGGGTKLTVL | 0.176 | > 1 | 0.658 | 0.00273
C5132 (protein) chain 1: QVQLQQWGAGLLKPSETLSLTCAVYGGSFSSYSWSWIRQPPGKGLEWIGEINDSGITNYNPSLKSRVTMSVDTSKNQLSLKLSSMTAADTAVYFCARDIVVLLPAAGGRRYYSYIDVWGTGTTVTVSS chain 2: DIQMTQSPSTLSASIGDRVTITCRASQSITSYLNWYQQKPGRAPKVLIYATSSLQSGVPSRFSGSGSGADFTLTISSLQPEDFATYYCQQSYTTPYTFGQGTKLEI | > 1 | > 1 | > 1 | 0.00436
C5133 (protein) chain 1: QVQLQQWGAGLLKPSETLSLTCAVYGGSFSSYSWSWIRQPPGKGLEWIGEINDSGITNYNPSLKSRVTMSVDTSKNQLSLKLSSMTAADTAVYFCARDIVVLLPAAGGRRYYSYIDVWGTGTTVTVSS chain 2: DIQMTQSPSSLPVSVGDRVTITCQASQDIDKNLNWYQQKPGKAPKLLIYDASNLETGVPSRFSRSGSGTDFSFTISSLQPEDIATYYCQQYDSLPITFGQGTRLEIK | > 1 | > 1 | > 1 | 0.549
C5131 (protein) chain 1: QVQLVQSGGGLVQPGGSLRLSCAASEIIVSSNYMSWVRQAPGKGLEWVSTVYSGGSTFYADSVKGRFTISRDKSKNILYLQMANLRVEDMAVYYCVRGDGSDNFYYGMDVWGQGTTVTVS chain 2: QSVLTQPPSVSGAPGQRVTISCTGSTSNIGAGYDIHWYQQVPGTSPKLLIYANTNRPSGVPDRFSGSKSGTSASLTITGLQAEDEADYYCQSYDSSLRYVIFGGGTTLTVL | 0.00191 | 0.0104 | 0.00152 | 0.00287
C5127 (protein) chain 1: QVQLVQSGDEMKKPGASVRVSCKASGYTFASYGFTWVRQAPGQGLEWMGWISPSNGYTNYAQKLQGRVTMTTDSSTNTAYMELRSLRSDDTAVYYCARLDCISSSCYGYHYYGMDVWGQGTTVTVSS chain 2: QSVLTQPPSASGTPGQRVTISCSGSSSSIASSTVNWYQQLPGTAPKLLIYSNSQRPSGVPDRFSGSKSGTSASLAISGLQSEDEADYFCAAWDDSLNGPWVFGGGTKLTVL | > 1 | > 1 | 0.683 | 0.0083
C5120 (protein) chain 1: EVQLLESGGGLVQPGGSLRLSCVASGVPFRSYAMSWVRQAPGKGLEWVSTISGSDGTTYHADSVKGRFTISKDNSKNTVYLQMNSLRAEDTAKYFCAKDLAGGAGGFGFDIWGQGTMVTVSS chain 2: SYELTQPPSVSVAPGKTARITCGENNIGSKSVYWYQQKPGQAPVLVIYYDSDRPSGIPERLSGSNSGNTATLTISRVEAGDEADYYCQVWDSSSDTYVFGTGTKVTVL | 0.711 | > 1 | 0.363 | 0.00314
C5121 (protein) chain 1: QVQLVQSGAEVKKTGSSVKVSCRASGGTVSNYPLNWVRQAPGQGLEWMGRIIPILGIPDYAQKFQGRVTISADRSTNTAYMELNSLRSEDTAIYYCARGYCTEGACVGPRWFDPWGQGTLVTVSS chain 2: QSVLTQPPSVSGAPGQRVTISCTGSNSNIGAGYDVHWYQQLPGTAPQLLIYRNAIRPSGVPDRFSGSNSGTSASLAINGLQAEDEADYYCQSYDSSLSDVVFGTGTKVTV | 0.0137 | 0.218 | 0.0274 | 0.00517
C5034 (protein) chain 1: QVQLVQSGAEVKKPGASVKVSCKASGYTFTGYYIHWVRQAPGQGLEWMGWVNPMSGGTNCTQKFQGRVTMTRDTSITTVYMELSRLNSDDTAVYYCTRDLAFAVVTGGMDVWGQGTTVTVSS chain 2: QSALTQPPSASGSPGQSVTISCTGTSSDVGGYNYVSWYQQHPGKAPKLMIYEINKRPSGVPDRFSGSKSGNTASLTVSGLQAEDETDYYCSSYAGNNNWVFGGGTKLTVL | > 1 | > 1 | 0.00131 | 0.00393
C5123 (protein) chain 1: QVQLVQSGAEVKKPGASVKVSCKASGYTFTSYYIHWVRQAPGQGFEWMGIINPSGGSTSYAQKFQGRVSLTGDTSTSTVYMELSSLRSEDTAEYYCARGGIAPDLRREFDHWGQGTLVTVSS chain 2: DIQMTQSPSTLSASVGDRVTITCRASQSISSWLAWYQQKPGKAPKLLIYKASNLESGVPSRFSGSGSGTEFTLTITSLQPDDFATYYCQQYKSYTFGQGTKLEIK | > 1 | > 1 | > 1 | 0.0105
C5035 (protein) chain 1: QVQLVQSGAEVKKPGSSVKVSCKASGGTFSTYGISWVRQAPGQGFEWMGGIIPTLDTAIYAQKFQGKVTITADESTSTAYMELNSLRSEDTAVYYCARHGPTYSTVLTGYFAFDYWGQGILVTVSS chain 2: QTVVTQEPSLTVSPGGTVTLTCASSTGPVTSGYYPNWFQKKPGQAPRALIYSTSNKHSWTPARFSGSLLGGKAALTLSGVQPEDEAEYYCLLYYGSSQEWVFGGGTKLTVL | > 1 | > 1 | 0.00191 | 0.00984
C5126 (protein) chain 1: QVQLVQSGAEVKKPGASVKVSCKASGYTFTNQYMHWVRQAPGQGLEWMGIINPDGGSISYAQKFQGRVTMTRDTSTSTVYMELSSLRSEDTAVYYCARDQAFIVDSGAFDIWGQGTMVTVSS chain 2: DIQMTQSPSTLSASVGDRVTITCRASQSMSNKLAWYQQKPGKAPKLLIYKASTLESGVPSRFSGSGSGTEFTLTISSLQPDDFATYYCQQYNSYSRTFGQGTKVEIK | > 1 | > 1 | > 1 | 0.00946
